Experimental data reported in patent US11000038B2, “Pyridone compounds and agricultural and horticultural fungicides containing the same as active ingredients” (priority 2017, dated 2021).

Tests used:
[1] = tested on: cabbage Alternaria sooty spot fungi (Alternaia brassicicola); test: Test Example C: cabbage Alternaria sooty spot, spray treatment of cabbage plants; type: in vivo; conditions: for Test C control value: cabbage Alternaria sooty spot; for Test C control value class (cabbage Alternaria sooty spot): control value=100{1-(n/3)}
From the text: [Test Example C] Cabbage Alternaria Sooty Spot
Test plants (cabbage variety: Shikidori) were cultivated until the cotyledons extended after the sowing of seeds.
<Control Value> Control value=100{1−(n/3)}

[2] = tested on: wheat brown rust fungi (Puccinia recondita); test: Test Example E: wheat brown rust, spray treatment of wheat plants; type: in vivo; conditions: for Test E control value: wheat brown rust; for Test E control value class (wheat brown rust): control value=100{1-(n/3)}
[3] = tested on: gray mold fungi (Botrytis cinerea); test: Test Example B: tomato gray mold, spray treatment of tomato plants; conditions: for Test B control value: tomato gray mold; for Test B control value class (tomato gray mold): control value=100{1-(n/3)}
[4] = tested on: grape downy mildew fungus (Plasmopara viticola); test: Test Example G: grape downy mildew, spray treatment of grape plants; conditions: for Test G control value: grape downy mildew, 7 to 10 days after inoculation; for Test G control value class (grape downy mildew): 2.5 ml/pot, grape Neomuscat, 7 to 10 days from inoculation
[5] = tested on: barley powdery mildew fungi (Blumeria graminis f. sp. hordei); test: Test Example D: barley powdery mildew, spray treatment of barley plants; conditions: for Test D control value: barley powdery mildew; for Test D control value class (barley powdery mildew): control value=100{1-(n/3)}
[6] = spray treatment of cabbage plants
[7] = spray treatment of wheat plants
[8] = spray treatment of tomato plants
[9] = spray treatment of barley plants

SMILES | Test C control value ([1]; spray treatment) | Test E control value ([2]; spray treatment) | Test B control value ([3]; spray treatment) | Test G control value ([4]; 250 ppm spray) | Test D control value ([5]; spray treatment) | Test C control value [1, 6] | Test E control value [2, 7] | Test B control value [3, 8] | Test G control value ([4]; 250 ppm spray (2.5 ml/pot)) | Test D control value [5, 9] | other results
Cc1ccc(Cl)cc1-n1cc(C)c(=O)c(C)c1-c1c(F)cc(F)cc1F [Compound 463] | H (H shows the control value of more than 50%) | H (H shows the control value of more than 50%) | H (H shows the control value of more than 50%) | L (L shows the control value of 50% or less) | H (H shows the control value of more than 50%) | – | – | – | – | – | –
CCc1c(-c2c(F)cc(F)cc2F)n(-c2ccccc2C)cc(Cl)c1=O [Compound 375] | H (H shows the control value of more than 50%) | H (H shows the control value of more than 50%) | H (H shows the control value of more than 50%) | L (L shows the control value of 50% or less) | H (H shows the control value of more than 50%) | – | – | – | – | – | –
Cc1cn(-c2ccccc2Br)c(-c2c(F)cc(F)cc2F)c(C)c1=O [Compound 453] | H (H shows the control value of more than 50%) | H (H shows the control value of more than 50%) | H (H shows the control value of more than 50%) | H (H shows the control value of more than 50%) | H (H shows the control value of more than 50%) | – | – | – | – | – | –
COc1ccc(C)c(-n2cc(C)c(=O)c(C)c2-c2ccccc2)c1 [Compound 435] | H (H shows the control value of more than 50%) | H (H shows the control value of more than 50%) | H (H shows the control value of more than 50%) | L (L shows the control value of 50% or less) | H (H shows the control value of more than 50%) | – | – | – | – | – | –
CCc1c(-c2ccc(F)cc2Cl)n(-c2ccccc2)cc(C)c1=O [Compound 623] | H (H shows the control value of more than 50%) | H (H shows the control value of more than 50%) | H (H shows the control value of more than 50%) | L (L shows the control value of 50% or less) | H (H shows the control value of more than 50%) | – | – | – | – | – | –
Cc1c(Cl)cccc1-n1cc(C)c(=O)c(C)c1-c1ccccc1 [Compound 484] | H (H shows the control value of more than 50%) | H (H shows the control value of more than 50%) | H (H shows the control value of more than 50%) | L (L shows the control value of 50% or less) | H (H shows the control value of more than 50%) | – | – | – | – | – | –
Cc1ccc(-n2cc(Cl)c(=O)c(Br)c2-c2c(F)cc(F)cc2F)c(C)c1 [Compound 258] | – | – | – | – | – | H (H shows the control value of more than 50%) | H (H shows the control value of more than 50%) | H (H shows the control value of more than 50%) | L (L shows the control value of 50% or less) | L (L shows the control value of 50% or less) | –
O=c1c(Br)cn(-c2ccc(F)cc2Cl)c(-c2c(F)cccc2F)c1Cl [Compound 96] | – | – | – | – | – | – | – | – | – | – | Test C control value class (cabbage Alternaria sooty spot) [1, 6]: H (H shows the control value of more than 50%); Test E control value class (wheat brown rust) [2, 7]: H (H shows the control value of more than 50%); Test B control value class (tomato gray mold) [3, 8]: H (H shows the control value of more than 50%); Test G control value class (grape downy mildew) ([4]; 250 ppm spray): H (H shows the control value of more than 50%); Test D control value class (barley powdery mildew) [5, 9]: L (L shows the control value of 50% or less)
Cc1cc(Cl)ccc1-n1cc(Br)c(=O)c(Cl)c1-c1c(F)cc(F)cc1F [Compound 329] | – | – | – | – | – | H (H shows the control value of more than 50%) | H (H shows the control value of more than 50%) | H (H shows the control value of more than 50%) | L (L shows the control value of 50% or less) | L (L shows the control value of 50% or less) | –
Cc1ccc([N+](=O)[O-])cc1-n1cc(Br)c(=O)c(Br)c1-c1c(F)cc(F)cc1F [Compound 325] | – | – | – | – | – | H (H shows the control value of more than 50%) | H (H shows the control value of more than 50%) | H (H shows the control value of more than 50%) | H (H shows the control value of more than 50%) | L (L shows the control value of 50% or less) | –
Cc1cn(-c2ccccc2)c(-c2ccccc2)c(C)c1=O [Compound 537] | H (H shows the control value of more than 50%) | H (H shows the control value of more than 50%) | H (H shows the control value of more than 50%) | L (L shows the control value of 50% or less) | L (L shows the control value of 50% or less) | – | – | – | – | – | –
Cc1cn(-c2ccccc2Cl)c(-c2ccccc2)c(C)c1=O [Compound 474] | H (H shows the control value of more than 50%) | H (H shows the control value of more than 50%) | H (H shows the control value of more than 50%) | H (H shows the control value of more than 50%) | H (H shows the control value of more than 50%) | – | – | – | – | – | –
CCc1cn(CC(C)C)c(-c2c(F)cc(F)cc2F)c(CC)c1=O [Compound 281] | – | – | – | – | – | H (H shows the control value of more than 50%) | H (H shows the control value of more than 50%) | H (H shows the control value of more than 50%) | L (L shows the control value of 50% or less) | H (H shows the control value of more than 50%) | –
Cc1ccccc1-n1cc(I)c(=O)c(C)c1-c1c(F)cc(F)cc1F [Compound 261] | – | – | – | – | – | H (H shows the control value of more than 50%) | H (H shows the control value of more than 50%) | H (H shows the control value of more than 50%) | H (H shows the control value of more than 50%) | H (H shows the control value of more than 50%) | –
COCOc1ccc(C)c(-n2cc(Cl)c(=O)c(Cl)c2-c2c(F)cc(OC)cc2F)c1 [Compound 299] | – | – | – | – | – | H (H shows the control value of more than 50%) | H (H shows the control value of more than 50%) | H (H shows the control value of more than 50%) | H (H shows the control value of more than 50%) | H (H shows the control value of more than 50%) | –
O=c1c(Br)cn(C2CCCCC2)c(-c2c(F)cc(F)cc2F)c1Br [Compound 30] | – | – | – | – | – | – | – | – | – | – | Test C control value class (cabbage Alternaria sooty spot) [1, 6]: H (H shows the control value of more than 50%); Test E control value class (wheat brown rust) [2, 7]: H (H shows the control value of more than 50%); Test B control value class (tomato gray mold) [3, 8]: H (H shows the control value of more than 50%); Test G control value class (grape downy mildew) ([4]; 250 ppm spray): L (L shows the control value of 50% or less); Test D control value class (barley powdery mildew) [5, 9]: H (H shows the control value of more than 50%)
Cc1c(Br)cccc1-n1cc(Br)c(=O)c(Cl)c1-c1c(F)cc(F)cc1F [Compound 346] | – | – | – | – | – | H (H shows the control value of more than 50%) | H (H shows the control value of more than 50%) | H (H shows the control value of more than 50%) | L (L shows the control value of 50% or less) | H (H shows the control value of more than 50%) | –
O=c1c(Cl)cn(CC2CCCCC2)c(-c2c(F)cc(F)cc2F)c1Br [Compound 123] | – | – | – | – | – | – | – | – | – | – | Test C control value class (cabbage Alternaria sooty spot) [1, 6]: H (H shows the control value of more than 50%); Test E control value class (wheat brown rust) [2, 7]: H (H shows the control value of more than 50%); Test B control value class (tomato gray mold) [3, 8]: H (H shows the control value of more than 50%); Test G control value class (grape downy mildew) ([4]; 250 ppm spray): H (H shows the control value of more than 50%); Test D control value class (barley powdery mildew) [5, 9]: L (L shows the control value of 50% or less)
CCc1c(-c2c(F)cccc2F)n(-c2ccccc2)cc(Br)c1=O [Compound 531] | H (H shows the control value of more than 50%) | L (L shows the control value of 50% or less) | H (H shows the control value of more than 50%) | L (L shows the control value of 50% or less) | L (L shows the control value of 50% or less) | – | – | – | – | – | –
O=c1c(Cl)cn(-c2ccccc2Cl)c(-c2c(F)cccc2F)c1Br [Compound 60] | – | – | – | – | – | – | – | – | – | – | Test C control value class (cabbage Alternaria sooty spot) [1, 6]: H (H shows the control value of more than 50%); Test E control value class (wheat brown rust) [2, 7]: H (H shows the control value of more than 50%); Test B control value class (tomato gray mold) [3, 8]: H (H shows the control value of more than 50%); Test G control value class (grape downy mildew) ([4]; 250 ppm spray): L (L shows the control value of 50% or less); Test D control value class (barley powdery mildew) [5, 9]: L (L shows the control value of 50% or less)
